Laboratory results reported in PubChem BioAssay AID504706 (National Center for Advancing Translational Sciences (NCATS), 2011).
In all, about 320,000 compounds went through this assay and about 200 (0.062%) were called active. Inconclusive means that the source gave no clear call. Such entries were picked first, then a sample of the others. Calls come from the whole dose curve; as a rule, active = well fitted activation curve with a large enough effect; inconclusive = small, poorly fitted or top-dose-only effect; inactive = no such curve, though single readings can be large or run the other way. No potency is given beside an inconclusive call; the fits are too rough.

Assay: qHTS assay for re-activators of p53 using a Luc reporter; note: nearly all actives have a fitted effect of over 45% in size; for activity change, positive = activation: % of control where 0% means no effect
Details: H1299 p53-A138V BP100-luciferase reporter, luminescence, 24 h; series mostly up to 92.2 µM; activity change, positive = activation: at the top concentration
Outline: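 H1299 (p53-null), stable ts p53-A138V + BP100-Luc; 1000 cells/well, Opti-MEM/10% FBS; cpd 4 pt, 1:5; 24 h, 37 deg C, 5% CO2; detection reagent 10 min RT; luminescence.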
Potency is the fitted concentration of half-maximal effect; tags give direction and shape of the fitted curve.

Which “activity change, positive = activation” value does the source give for `CN=c1scc(-c2cccs2)n1/N=C/c1ccccc1O` here?
Its value is inactive: -28.2%.

Which Potency does the source give for `O=C(N/N=C/c1c[nH]c2ccccc12)c1cc(-c2ccc3ccccc3c2)n[nH]1` here?
The Potency was inconclusive [activator, partial curve, poor fit].

For `C=CCn1c(C)c(C(C)=O)cc(NC(=O)c2ccccc2)c1=O`, which “activity change, positive = activation” value is on record?
The value was inactive: -1.03%.

For `CC(C)OC(=O)C1C(=O)CC(C)(O)C(C(=O)OC(C)C)C1c1ccc(F)cc1` (centres undefined), which Potency is on record?
Its Potency is inconclusive [activator, single point].

Which “activity change, positive = activation” value does the source give for `COc1ccc2oc(C(=O)OCC(=O)NC(=O)c3ccccc3)c(C)c2c1` here?
Its value is inactive: 1.52%.

With `N#Cc1ccsc1NC(=O)COC(=O)c1ccc2ccccc2c1` as the compound, how does the Potency read?
The Potency was inconclusive [activator, partial curve, poor fit].

With `Cc1ccc2nc(-c3ccc(NC(=O)Cc4cccs4)cc3)[nH]c2c1` as the compound, how does the “activity change, positive = activation” value read?
Its value is inactive: 3.04%.

For `CC(C)c1ccc(NC(=O)c2ccccc2NC(=O)C2CC=CCC2C(=O)O)cc1` (centres undefined), which “activity change, positive = activation” value is on record?
Its value is inactive: 29.2%.

With `CCOc1ccccc1C1C(C#N)=C(N)Nc2onc(-c3ccccc3)c21` (centres undefined) as the compound, how does the Potency read?
The Potency was inconclusive [activator, single point].

For `COc1cccc(NC(=O)CSc2nc(C)cs2)c1`, which “activity change, positive = activation” value is on record?
The value was inactive: 10%.

Which Potency does the source give for `Cc1cc(C)nc(Nc2nc3ccccc3s2)n1` here?
Its Potency is inconclusive [activator, partial curve, poor fit].

Which “activity change, positive = activation” value does the source give for `Cc1oc(C(=O)Nc2ccc(C(=O)O)cc2)cc1COc1ccccc1` here?
The value was inactive: 5.08%.

Which “activity change, positive = activation” value does the source give for `CCc1ccc(S(=O)(=O)N/N=C\c2ccc3c(c2)OCO3)cc1` here?
The value was inactive: -12.3%.

Which “activity change, positive = activation” value does the source give for `O=C(COC(=O)c1cc(S(=O)(=O)N2CCOCC2)ccc1F)NCCc1ccc(F)cc1` here?
The value was inactive: -0.979%.

Which Potency does the source give for `Cc1[nH]n2c(=O)c(C#N)c(-c3ccccc3)nc2c1-c1ccccc1` here?
Its Potency is inconclusive [activator, partial curve, poor fit].

Which Potency does the source give for `Cc1ccc(S(=O)(=O)N2C[C@@H]3CCCC[C@@H]3[C@@H](C)[C@H]2c2cn(Cc3ccccc3)c3ncccc23)cc1` here?
The Potency was inconclusive [activator, partial curve, poor fit].

For `CC1CN(C(=O)Nc2ccc3c(c2)OCCO3)CC(C)O1` (centres undefined), which “activity change, positive = activation” value is on record?
The value was inactive: 29.7%.

Which “activity change, positive = activation” value does the source give for `CCC12CSc3nc(Cl)ccc3N1C(=O)C(=O)N2C` (centres undefined) here?
Its value is inactive: -2.49%.

With `CC(C)CC(NC(=O)/C(=C/c1ccco1)NC(=O)c1ccc(Br)o1)C(=O)O` (centres undefined) as the compound, how does the Potency read?
The Potency was inconclusive [activator, single point].

For `O=C(OCC(=O)N1CCCCC1)c1cccs1`, which Potency is on record?
Its Potency is inconclusive [activator, full curve, poor fit].

Which Potency does the source give for `O=C(CCc1nnc(CCc2c[nH]c3ccccc23)o1)NC1CCC1` here?
Its Potency is inconclusive [activator, partial curve, poor fit].

For `CC(C)(C)c1ccc(-c2nc(-c3ccncc3)no2)cc1`, which Potency is on record?
The Potency was inconclusive [activator, partial curve, poor fit].

Which “activity change, positive = activation” value does the source give for `Cc1cc(C)c(S(=O)(=O)NCC(c2ccco2)N2CCc3ccccc3C2)c(C)c1` (centres undefined) here?
The value was inactive: 9.15%.

For `O=C(NC1CCCCC1)c1cc(-c2ccco2)on1`, which Potency is on record?
The Potency was inconclusive [activator, partial curve, poor fit].

Which Potency does the source give for `CCOc1cccc(/C=C2\NC(=S)N(c3ccccc3)C2=O)c1O` here?
The Potency was inconclusive [activator, partial curve, poor fit].

For `O=C(NNC1=C(C(=O)C(F)(F)F)CCC1)c1ccc(Cl)cc1`, which Potency is on record?
The Potency was inconclusive [activator, single point].

Which Potency does the source give for `OCCN1CCN(CCSc2ccccc2)CC1` here?
The Potency was inconclusive [activator, single point].

With `O=C1/C(=C/c2ccco2)SC(=S)N1CC1CCCO1` (centres undefined) as the compound, how does the Potency read?
The Potency was inconclusive [activator, partial curve, poor fit].

For `CCN1CCN(/C=N/c2nc3c(s2)CCCC3)CC1`, which “activity change, positive = activation” value is on record?
Its value is inactive: -9.23%.

Which Potency does the source give for `Cc1ccnc(N/N=C/c2ccccc2)n1` here?
Its Potency is inconclusive [activator, partial curve, poor fit].

For `COC(=O)N/N=C/c1ccccc1`, which “activity change, positive = activation” value is on record?
The value was inactive: 11%.

With `NC(=O)CN1CCN(S(=O)(=O)c2ccc(Br)cc2)CC1` as the compound, how does the “activity change, positive = activation” value read?
Its value is inactive: 1.08%.

With `Oc1[nH]c2ccccc2c1N=Nc1nncc2ccccc12` as the compound, how does the “activity change, positive = activation” value read?
The value was inactive: 25.6%.

For `COc1cccc(NC(=O)C2CCCO2)c1` (centres undefined), which Potency is on record?
Its Potency is inconclusive [activator, partial curve, poor fit].

For `COc1ccc(N2CSC3=C(C#N)C(c4cccs4)CC(=O)N3C2)cc1` (centres undefined), which Potency is on record?
Its Potency is inconclusive [activator, partial curve, poor fit].

With `COc1ccccc1N(CC(=O)NCCSCc1cccc(C)c1)S(=O)(=O)c1ccccc1` as the compound, how does the “activity change, positive = activation” value read?
The value was inactive: -1.54%.

With `Cc1cc(NC(=O)COC(=O)C2CC2)ccc1Br` as the compound, how does the “activity change, positive = activation” value read?
The value was inactive: 2.77%.

Which Potency does the source give for `CCS/C(N)=N/N=C/c1cc(C)ccc1O` here?
The Potency was inconclusive [activator, partial curve, poor fit].

For `O=C(N/N=C/c1ccc(Br)s1)c1ccccn1`, which Potency is on record?
Its Potency is inconclusive [activator, partial curve, poor fit].

Which “activity change, positive = activation” value does the source give for `Cc1ccc(C(=O)OC(C(=O)Nc2ccc(Cl)cc2C(F)(F)F)c2ccccc2)cc1` (centres undefined) here?
Its value is inactive: 3.58%.

For `O=C(CSc1ccccc1)Nc1nccs1`, which “activity change, positive = activation” value is on record?
Its value is inactive: 24%.

For `CSc1ccccc1OCc1cc(C(=O)NCCC2=CCCCC2)no1`, which Potency is on record?
The Potency was inconclusive [activator, single point].

For `Cc1cc(C)nc(Nc2ccc(N3CCOCC3)cc2)n1`, which Potency is on record?
Its Potency is inconclusive [activator, partial curve, poor fit].

Which Potency does the source give for `CC(C)c1ccc(C(=O)NCc2ccc(Cl)cc2)cc1` here?
Its Potency is inconclusive [activator, full curve, poor fit].

Which Potency does the source give for `Cn1cccc1C(=O)OCC(=O)c1ccc(Br)s1` here?
Its Potency is inconclusive [activator, partial curve, poor fit].

With `O=C1CSC(=S)N1c1ccc(O)cc1` as the compound, how does the Potency read?
Its Potency is inconclusive [activator, full curve, poor fit].

For `Cc1cc(C(=O)Nc2nnc(C3CC3)s2)c(C)s1`, which Potency is on record?
Its Potency is inconclusive [activator, partial curve, poor fit].

Which “activity change, positive = activation” value does the source give for `Cc1cc(C)c(Cn2cnc(-c3ccc([N+](=O)[O-])cc3)c2)c(C)c1` here?
Its value is inactive: -3.44%.

With `CN(c1ccccc1)S(=O)(=O)c1ccc(Cl)c(C(=O)Nc2ccc(-c3nc4ccccc4[nH]3)cc2)c1` as the compound, how does the “activity change, positive = activation” value read?
The value was inactive: 3.22%.

For `CCCCCc1nc2c(C#N)c(-c3ccc(Cl)cc3)ccn2n1`, which “activity change, positive = activation” value is on record?
Its value is inactive: 1.92%.

For `OCC1(Cc2ccc(F)cc2)CCCN(CCc2ccccc2)C1` (centres undefined), which Potency is on record?
The Potency was inconclusive [activator, single point].

For `COCCn1c(-c2ccc(-c3ccc([N+](=O)[O-])cc3Br)o2)nc2c1c(=O)[nH]c(=O)n2CC(C)C`, which “activity change, positive = activation” value is on record?
Its value is inactive: -1.43%.

For `COc1ccc(Nc2nnc(SCC3CCCCO3)s2)cc1` (centres undefined), which “activity change, positive = activation” value is on record?
Its value is inactive: 29.4%.

Which Potency does the source give for `O=C(N/N=C/c1cc(Cl)cc(Cl)c1O)c1ccncc1` here?
Its Potency is inconclusive [activator, full curve, poor fit].

For `COc1ccc(N2C(=O)C3C4C=CC(C4)C3C2=O)c(OC)c1` (centres undefined), which “activity change, positive = activation” value is on record?
The value was inactive: -12.8%.

With `Cc1ccc2cc(/C=C/C(=O)c3ccco3)c(Cl)nc2c1` as the compound, how does the Potency read?
The Potency was inconclusive [activator, full curve, poor fit].

Which Potency does the source give for `COc1ccc(N2CCN(CC(=O)Nc3ccc(C)c(C)c3)CC2)cc1` here?
Its Potency is inconclusive [activator, single point].

For `O=C1Nc2cc(C(=O)NCCN3CCCCCC3)ccc2S/C1=C\c1ccccc1`, which Potency is on record?
Its Potency is inconclusive [activator, full curve, poor fit].

With `COc1ccc(Cc2nnc(NC(=O)Nc3ccc(C)cc3)s2)cc1OC` as the compound, how does the Potency read?
Its Potency is inconclusive [activator, partial curve, poor fit].

With `CCOC(=O)CC1(CC(=O)OCC)NC(=O)c2c(C)sc(C(=O)OCC)c2N1` as the compound, how does the “activity change, positive = activation” value read?
The value was inactive: -10.7%.

Which “activity change, positive = activation” value does the source give for `COc1ccc(Cn2c(CCC(=O)O)nc3cccnc32)cc1` here?
The value was inactive: 21.3%.

With `O=C(Nc1ccccc1F)c1cc(Cl)sc1Cl` as the compound, how does the Potency read?
Its Potency is inconclusive [activator, single point].

Which Potency does the source give for `O=c1oc2ccccc2cc1-c1csc(Nc2nc3ccc(F)cc3s2)n1` here?
Its Potency is inconclusive [activator, partial curve, poor fit].

Which “activity change, positive = activation” value does the source give for `CCOc1ccc(C(=O)NC(=S)Nc2ccc(NC(=O)CC)cc2)cc1[N+](=O)[O-]` here?
Its value is inactive: -9.73%.

For `Fc1ccc2[nH]c3c(N4CCN(C5CCCCC5)CC4)ncnc3c2c1`, which Potency is on record?
The Potency was inconclusive [activator, single point].

For `Cc1cccc(NC(=O)CSc2ccc(-c3ccccn3)nn2)c1C`, which “activity change, positive = activation” value is on record?
Its value is inactive: 5.87%.

For `CCCCNC(=O)c1cc(-c2ccc(F)cc2)on1`, which Potency is on record?
Its Potency is inconclusive [activator, partial curve, poor fit].

Which Potency does the source give for `CC(=O)c1ccc(NC(=O)c2ccn(C(=O)OCC(C)C)n2)cc1` here?
The Potency was inconclusive [activator, partial curve, poor fit].

For `CSc1nc(C)cc(OCC(=O)N/N=C/c2ccccc2O)n1`, which Potency is on record?
Its Potency is inconclusive [activator, full curve, poor fit].

For `CN(C)/C=C(/C(=O)c1ccc(Cl)cc1)S(=O)(=O)c1ccccc1`, which Potency is on record?
The Potency was inconclusive [activator, single point].

For `CCC1Oc2ccccc2N(CC(=O)Nc2ccc3c(c2)OCCO3)C1=O` (centres undefined), which Potency is on record?
The Potency was inconclusive [activator, partial curve, poor fit].

With `CCN(CC)C(=O)Cn1cnc([N+](=O)[O-])n1` as the compound, how does the Potency read?
The Potency was inconclusive [activator, single point].

With `CC(=O)c1cc(Cc2csc(C(C)=O)c2)cs1` as the compound, how does the “activity change, positive = activation” value read?
Its value is inactive: 4.51%.

For `CC(C)c1cc(C(=O)N/N=C/c2ccco2)n[nH]1`, which Potency is on record?
The Potency was inconclusive [activator, partial curve, poor fit].
